# Measured values reported in ChEMBL document CHEMBL4888484, “Replenishing the malaria drug discovery pipeline: Screening and hit evaluation of the MMV Hit Generation Library 1 (HGL1) against asexual blood stage Plasmodium falciparum ,using a nano luciferase reporter read-out” (2022).
# Hit rate of the full screen: of about 4,800 compounds, about 410 (8.5%) showed an effect of 50% or more. This is one part of the list.
# Tested on: Plasmodium falciparum
# Assay: Confirmatory screen in NF54 pLDH assay, in single point, at 2uM, 72h
# Type: functional, Erythrocyte
# Settings: timepoint 72 hour
row,SMILES,% Inhibition [%]
1,Cc1nc2c(c(=O)[nH]1)NC(=O)[C@H](CC(C)C)N2,0
2,NC(=O)c1cccc(CNc2ccc(-n3cncn3)c(Cl)c2)c1,7
3,O=c1[nH]c2cc(Cl)c(S(=O)(=O)Cl)cc2[nH]1,6
4,Cc1cc(C(=O)NCCCS(N)(=O)=O)c(Cl)cc1F,-7
5,C=CCN1C(=O)OC(C)(CCC=C(C)C)C1(C)O (stereo unspecified),14
6,O=C(CNC(=O)COc1ccccc1)NCC1(O)CCCCCC1,6
7,CCOc1ccc(NC(=O)N(Cc2cn(C)c3ccccc23)C2CCCCC2)cc1,-14
8,CCOc1ccc(-n2c(CN3CCN(C(=O)c4ccco4)CC3)nc3ccccc3c2=O)cc1,14
9,C#CCNC(=O)[C@H](C#N)c1nc(C)c(C)s1,10
10,O=C(NCCc1ccccc1)N1CC[C@@]2(C1)Nc1cccnc1N=C2NC1CCCC1,-5
11,Cc1nc2cc(OCc3ccccc3)ccc2n1C,11
12,Cc1ccc(Cn2ccn3nc(-c4ccc5c(c4)OCO5)cc3c2=O)cc1C,-7
13,CC(C)N1CC[C@H](c2nnc3n2CCN(S(=O)(=O)c2ccccc2Cl)C3)C1,12
14,CN(C)S(=O)(=O)N(CCN1CCCC1)[C@H]1CCN(C(=O)CCCc2ccccc2)C1,9
15,Cc1cc(C)nc(-n2nc(-c3ccc(Cl)cc3)c3c2NC(=O)C[C@@H]3c2ccc3c(c2)OCO3)n1,2
16,CCC(C)(C)NCC(=O)Nc1cc(F)ccc1F,-18
17,COc1ccc2cc3n(c2c1)C[C@](C(=O)NC1CCCCCC1)(c1ccccc1)N(Cc1cccc(C)c1)C3=O,-15
18,O=C(Nc1ccccc1)c1cc(C(=O)Nc2ccccc2)cc(C(=O)Nc2ccccc2C(=O)O)c1,11
19,CC1CCN(C[C@@H](O)CNc2nnc(C(F)(F)F)s2)CC1,1
20,CCN1CC(=O)N[C@H]2CN(C(=O)CCn3ccnc3C)CC[C@@H]2OCc2cccc(c2)Oc2cc(OC(C)C)cc(c2)C1=O,10
21,CN(Cc1ccccc1)C(=O)C[C@H]1CCN(C(=O)NC2CCCCC2)C1,7
22,CC[C@H]1Cn2c(C(=O)NCc3cccs3)cc3c(Cl)ccc(c32)O1,-3
23,O=C(CCn1ccc2cc(S(=O)(=O)N3CCCCC3)ccc21)N1CCN(c2ccccc2F)CC1,10
24,O=C(Nc1ccccc1)Nc1nc2c(s1)CCCCCCCCCC2,-9
25,O=C(C[C@H]1CCc2nnc(C3CCOCC3)n2CC1)Nc1ccc(Cl)cc1F,-2
26,O=C(c1cc(Br)c(C(=O)N2CCCC2)cc1Br)N1CCCC1,-1

row,SMILES,% Inhibition [%]
1,C=Cn1cc[n+](CC(=O)c2ccc(-c3ccccc3)cc2)c1,51
2,Cc1ncccc1C(=O)Nc1cccc(Oc2cccnn2)c1,4
3,O=C(NCc1ccco1)c1cc2c(Cl)ccc3c2n1CCO3,12
4,O=C(NCc1c(O)ccc2c1CCCC2)c1ccc2nncn2c1,-13
5,COc1ccc(C(=O)n2nc(Nc3ccccc3Cl)cc2Nc2ccccc2Cl)cc1,12
6,CCNc1ccnc(NCc2nc(-c3cccc(F)c3)c(-c3ccccn3)[nH]2)n1,22
7,CS(=O)(=O)N1CCc2cc(S(=O)(=O)N3CCC(c4ccccc4)CC3)ccc21,10
8,CN1CCC(NC(=O)c2cnc(-c3ccc4c(c3)OCO4)nc2Nc2ccc(F)cc2)CC1,20
9,Cc1cc(OC(=O)[C@H]2CC(=O)N(c3ccc4ccccc4c3)C2)c(C(C)C)cc1NC1=NS(=O)(=O)c2ccccc21,1
10,Cc1ccc(NC(=O)CC2CC3CCC2C3)c(Br)c1 (stereo unspecified),10
11,C[C@H]1CCCCN1C(=O)CN1CCN(c2nccn3cnnc23)CC1,7
12,O=C(CCCc1ccccc1)Nc1cc(C2CC2)nn1-c1nc(-c2ccccc2)cc(=O)[nH]1,36
13,COc1ccc([C@H](CNC(=O)c2ccccc2)N2CCC(c3ccccc3)=N2)cc1,-10
14,CCN(C)CCN(CC)C(=O)CCc1cc2c(n1-c1ccc(OC)cc1)-c1ccccc1CC2,14
15,COc1ccc(S(=O)(=O)N2CCC(C)(C(=O)NCc3ccc4c(c3)OCO4)CC2)cc1OC,5
16,CC(C)(C)OC(=O)N1C2CCC1CC(CC(=O)NC1CCCC1)C2 (stereo unspecified),10
17,N#Cc1cc(N2CCc3ccccc3C2)nc2ccccc12,8
18,CCCCCNC(=O)NCc1ncoc1C,4
19,Cn1ccnc1[C@@H]1CCCN1S(=O)(=O)c1c2c(nn1C)CCCC2,13
20,CCCn1c(C)cnc1C1CN(S(=O)(=O)c2cc(Cl)ccc2Cl)C1,6
21,CCCCn1nc(NC(=O)c2cc(C3CC3)[nH]n2)cc1C,6
22,O=C(O)[C@@H]1CN(S(=O)(=O)c2cc3ccccc3o2)c2ccccc21,12
23,Cc1cc(C(=O)Nc2cc(Br)c(=O)n(C)c2)no1,-9
24,CN(Cc1nccn1C)C(=O)c1cc2ccccc2[nH]1,15
25,C[C@@H](CNC(=O)c1ccc(Cl)c(-n2cnc3cccnc32)c1)c1ccccc1,3
26,N#Cc1nc(COc2cccc(Cl)c2)oc1NC[C@H]1CCCO1,9

row,SMILES,% Inhibition [%]
1,O=S(=O)(N[C@@H](Cn1cnc2ccccc21)c1ccc(F)cc1)c1cc(F)c(F)cc1F,7
2,C#CC[C@H](OC(=O)c1nc(-c2cnn(C)c2)oc1C)C(C)(C)C,-13
3,CC(C)C[C@H](N)C(=O)N1CC2CCCCC2C1 (stereo partly specified),-19
4,CCCN(CCC)C(=O)CCC(=O)N[C@]1(C(F)(F)F)CCc2ccccc21,11
5,Cc1c([C@@H](NCc2ncccc2O)C(C)C)oc2ccccc12,94
6,COc1ccc(OC)c([C@H](C)NC(=O)N2CCS(=O)(=O)CC2)c1,13
7,Cc1c(C)c2ccc(NC(=O)c3cc4ccccc4o3)cc2[nH]c1=O,78
8,Cc1ccc(S(=O)(=O)c2ccc3c(c2)Oc2ccccc2N3)cc1,-16
9,O=C(c1csc(C(=O)N2CCCC2)n1)N1CCN(Cc2ccccc2)CC1,-4
10,CCC(=O)OCCN1CCN(CCN(C(=O)CC)c2ccc(C3CCCC3)cc2)CC1,3
11,Cc1ccc(O)c(CNc2ccc3c(c2)OCC3(C)C)n1,-19
12,Cc1c(Cl)c(-c2nnc(-c3cccc(C(F)(F)F)c3)o2)nn1C,-23
13,CN(CC(C)(CO)CO)c1ncc(-c2ccccc2)s1,10
14,Cc1cc(=O)[nH]c(N2CCCCCC2)n1,8
15,Cc1[nH]c2ccccc2c1C1CCN(C(=O)c2ccccc2Br)CC1,6
16,O=C(Cc1ccccc1F)N1CC(n2cnnc2C2CCOCC2)C1,-12
17,O=C(O)Cc1ccc(OCc2nc(-c3ccsc3)no2)cc1,5
18,O=C(c1ccoc1)N1CCC[C@H](C(=O)N2CCN(C(c3ccccc3)c3ccccc3)CC2)C1,6
19,CCc1cc(N2CCC(N3C(=O)[C@H]4CCCN4C3=O)CC2)ncn1,6
20,CCCN1CCC(NCc2ccc(-c3cccc(Cl)c3Cl)o2)CC1,98
21,CC(=O)Nc1ccccc1N(S(=O)(=O)c1ccc2ccccc2c1)S(=O)(=O)c1ccc2ccccc2c1,-1
22,Cc1cccc(-n2c(=O)c3sccc3n(CC(=O)NCc3ccc(F)cc3F)c2=O)c1C,12
23,Cn1ccnc1C1CC(NC(=O)c2cc3c(s2)CCC3)CCO1 (stereo unspecified),13
24,Cc1cnc(C(=O)N2CCC[C@H]2c2nc(C3CCOCC3)no2)cn1,14
25,CC(C)c1nc(C(=O)Nc2[nH]c(=O)ncc2F)cs1,83
26,CN1CC[C@H](CN(C)Cc2ccc3cc(O)ccc3c2)C1,36

row,SMILES,% Inhibition [%]
1,CC(C)(CNC(=O)[C@@H]1CCC(=O)N1)C1=CCCC1,12
2,O=c1[nH]c2nccnc2c(=O)n1Cc1ccc(F)cc1,-19
3,CCn1cc(CN2C(=O)C3CCCCC3C2=O)c(C)n1 (stereo unspecified),0
4,O=c1c2ccccc2nnn1-c1ncc(C(F)(F)F)cc1Cl,-5
5,C=C1CC2C(CC1OC(=O)NC(=O)CN1CCCCC1)C2(C)C (stereo unspecified),-12
6,c1ccc(COc2nsnc2N2CCOCC2)cc1,6
7,Cc1[nH]nc2c1C1(CCCCC1)CC(=O)N2,-5
8,CC(C)(C)OC(=O)N1C[C@@H](O)CC1=O,-7
9,CCOC(=O)N1CCc2c(nc(-c3ccc(F)cc3)n(CC(=O)Nc3c(C)cc(C)cc3C)c2=O)C1,6
10,Cc1ccc(O)c(CNCC2(c3ccccc3Cl)CCOCC2)n1,98
11,Cc1ccc(-c2nn3nc(COc4cccc5c4OC(C)(C)C5)nc3s2)cc1,13
12,O=C(OCc1nccn1Cc1ccccc1)c1cccc2cc[nH]c12,11
13,CN1c2ccccc2C(=O)N[C@@H]1c1ccccc1OCc1ccccc1,-4
14,CC(C)c1nc(C2CN(C(=O)Nc3ccc(F)c(Cl)c3)C2)n(C)n1,4
15,C=CCNC(=O)CN1CCN(CC(=O)N(Cc2ccccc2)[C@@H](C)C2CC2)CC1,12
16,Cc1cnc(Cc2ccccc2)n1CCNC(=O)c1cnn(C)c1,12
17,CS(=O)(=O)CC1(CON=C(N)c2cccnc2)CC1,8
18,CCCn1c(C)cnc1C1CN(S(=O)(=O)c2ccc(C)c(F)c2)C1,-3
19,CCCN(Cc1nnc(-c2ccccc2)o1)S(=O)(=O)c1cnn(C(F)F)c1C,0
20,Cn1cc(-c2noc(-c3cccc(C#N)c3)n2)ccc1=O,8
21,CCOC(=O)c1nc(-c2ccc(N3CCCCC3)nc2)no1,13
22,COc1cc(N2CCn3c(nc4ccccc43)C2)ccc1NC(=O)c1ccc(C)cc1,-23
23,Cc1cccc(C)c1OCC(=O)Nc1ccc(-c2nc3cc4ccccc4cc3[nH]2)cc1,18
